According to the supplement of paper PMC10126150:
Values marked as one replicate rest on one cluster of the flow cell; about a third of the high ones do not repeat.

The sequences below were run on ATP (assay: switch fluorescence ratio, 500 uM ATP over buffer (Cy3 cluster intensity, sum of 5 cycles each) (fold (ratio)); higher = stronger signal-on switching upon ATP binding; sequences stand for … in TCGTCGGCAGCGTCAGATGTGTATAAGAGACAGTTTTTTTTTTTTTTTTTTTTTTTTT…TC). Settings: aptamer strand: ATP DNA aptamer (quencher-CACCTGGGGGAGTATTGCGGAGGAAGG + anchor), 100 nM annealed; ATP concentration: 500 uM; one replicate.
How it was run: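 Clusters carrying Cy3-labelled switching strands on a modified Illumina MiSeq flow-cell were annealed to 100 nM quencher-labelled ATP aptamer and imaged in selection buffer. They were imaged again after 15 min with 500 uM ATP at 22 °C, over five buffer/ATP cycles with NaOH stripping and re-annealing in between. For each cluster, the fluorescence ratio is the summed Cy3 intensity of the target cycles divided by that of the buffer cycles, averaged per switch-domain sequence. Clusters outside 100-1000 RFU were left out.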
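Note: ATP exposure 15 min at 22 °C before imaging.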

**Q.** For CGTAGTAGGG, which switch fluorescence ratio is on record?
**A.** 1.03

**Q.** GAACTGTGAG was tested. Which switch fluorescence ratio did it give?
**A.** 1.03

**Q.** How did the switch fluorescence ratio turn out when CAGCGTGGCC was run?
**A.** 1.03

**Q.** How did the switch fluorescence ratio turn out when GAGGGCTCTA was run?
**A.** 1.04

**Q.** With GTAGCTATGG as the sequence, how does the switch fluorescence ratio read?
**A.** 1.94

**Q.** Which switch fluorescence ratio does the source give for TCCTGAAGGG here?
**A.** 1.01

**Q.** Which switch fluorescence ratio does the source give for ATATCGGGGC here?
**A.** 0.995

**Q.** TTGTTAATGG was tested. Which switch fluorescence ratio did it give?
**A.** 0.999

**Q.** For ATGTGCGCGT, which switch fluorescence ratio is on record?
**A.** 1.01

**Q.** How did the switch fluorescence ratio turn out when TTGCTAAATA was run?
**A.** 1.07

**Q.** How did the switch fluorescence ratio turn out when AGTGGAAAGC was run?
**A.** 1.03

**Q.** Which switch fluorescence ratio does the source give for GGGTTGTGAC here?
**A.** 0.972

**Q.** How did the switch fluorescence ratio turn out when ATCGAATGCC was run?
**A.** 0.934

**Q.** With AAGTGGAACT as the sequence, how does the switch fluorescence ratio read?
**A.** 0.923

**Q.** How did the switch fluorescence ratio turn out when GCATGTCTGT was run?
**A.** 1.02

**Q.** With CGTACCACAT as the sequence, how does the switch fluorescence ratio read?
**A.** 0.991

**Q.** With CCGCAGAAGG as the sequence, how does the switch fluorescence ratio read?
**A.** 2.37

**Q.** For TCAGTTTAAT, which switch fluorescence ratio is on record?
**A.** 0.976

**Q.** ATCATGTGGA was tested. Which switch fluorescence ratio did it give?
**A.** 0.992

**Q.** Which switch fluorescence ratio does the source give for TCAGAGACAT here?
**A.** 1.02

**Q.** How did the switch fluorescence ratio turn out when TCATAATAGG was run?
**A.** 0.968

**Q.** With GAACTAGCAA as the sequence, how does the switch fluorescence ratio read?
**A.** 0.95

**Q.** How did the switch fluorescence ratio turn out when CTTATCTACC was run?
**A.** 1.04

**Q.** Which switch fluorescence ratio does the source give for CGTAATGCGA here?
**A.** 1.45

**Q.** For GGAACAGTAT, which switch fluorescence ratio is on record?
**A.** 0.992

**Q.** For TAAAATCTGA, which switch fluorescence ratio is on record?
**A.** 1.02

**Q.** With AAGCTACCAG as the sequence, how does the switch fluorescence ratio read?
**A.** 1.11

**Q.** How did the switch fluorescence ratio turn out when ATATTTTTGC was run?
**A.** 0.989

**Q.** For CGGGATCAAA, which switch fluorescence ratio is on record?
**A.** 1.01

**Q.** For CGCATCCGTG, which switch fluorescence ratio is on record?
**A.** 1.04

**Q.** For TCGATCAGGC, which switch fluorescence ratio is on record?
**A.** 1.05

**Q.** With TTAAGGTTCC as the sequence, how does the switch fluorescence ratio read?
**A.** 1.11

**Q.** With AGCACTGATG as the sequence, how does the switch fluorescence ratio read?
**A.** 1.02

**Q.** Which switch fluorescence ratio does the source give for AAGCGTCATT here?
**A.** 1.04

**Q.** Which switch fluorescence ratio does the source give for CTAATGAGCC here?
**A.** 1.01

**Q.** How did the switch fluorescence ratio turn out when ATAGTCGTCA was run?
**A.** 1.04

**Q.** Which switch fluorescence ratio does the source give for ATATCATAGG here?
**A.** 1.02

**Q.** CTGCATTTT was tested. Which switch fluorescence ratio did it give?
**A.** 1.18

**Q.** CAGGCTTGAA was tested. Which switch fluorescence ratio did it give?
**A.** 0.987

**Q.** With AACCTCGGTA as the sequence, how does the switch fluorescence ratio read?
**A.** 0.982

**Q.** How did the switch fluorescence ratio turn out when GAAGTCGAGC was run?
**A.** 0.968

**Q.** Which switch fluorescence ratio does the source give for AATTCAGACG here?
**A.** 1.13

**Q.** Which switch fluorescence ratio does the source give for AGACTCGATC here?
**A.** 0.963

**Q.** TTATTCGACC was tested. Which switch fluorescence ratio did it give?
**A.** 1.34

**Q.** How did the switch fluorescence ratio turn out when GTGGTTTGCG was run?
**A.** 0.904

**Q.** With TTGGTTTGAC as the sequence, how does the switch fluorescence ratio read?
**A.** 1.06

**Q.** TTCCGTGGGG was tested. Which switch fluorescence ratio did it give?
**A.** 1.02

**Q.** Which switch fluorescence ratio does the source give for TTCTATTAT here?
**A.** 0.965

**Q.** For ACCAAGCTAA, which switch fluorescence ratio is on record?
**A.** 1.05

**Q.** For GACTTTGCAT, which switch fluorescence ratio is on record?
**A.** 1.27

**Q.** How did the switch fluorescence ratio turn out when TGCAGGATGT was run?
**A.** 1.02

**Q.** GAATTCCGTC was tested. Which switch fluorescence ratio did it give?
**A.** 0.978

**Q.** With CCCTATGATT as the sequence, how does the switch fluorescence ratio read?
**A.** 0.934

**Q.** For ACGCGAAGGT, which switch fluorescence ratio is on record?
**A.** 1.06

**Q.** For TCGTGTGAGC, which switch fluorescence ratio is on record?
**A.** 0.955

**Q.** How did the switch fluorescence ratio turn out when TGAGACGTCG was run?
**A.** 1.03

**Q.** Which switch fluorescence ratio does the source give for CGATTAGATG here?
**A.** 0.964

**Q.** With CCCGACTGGG as the sequence, how does the switch fluorescence ratio read?
**A.** 1.03

**Q.** How did the switch fluorescence ratio turn out when CACCGGTGTG was run?
**A.** 1.01

**Q.** For AGAGGGGACC, which switch fluorescence ratio is on record?
**A.** 1.15

**Q.** Which switch fluorescence ratio does the source give for TAGATGTT here?
**A.** 0.97

**Q.** AGGTGAGTTT was tested. Which switch fluorescence ratio did it give?
**A.** 1.05

**Q.** Which switch fluorescence ratio does the source give for TAATGGTGGT here?
**A.** 1.05

**Q.** For TCGCACACTT, which switch fluorescence ratio is on record?
**A.** 1.32

**Q.** For AAGAGCCCAC, which switch fluorescence ratio is on record?
**A.** 0.981

**Q.** How did the switch fluorescence ratio turn out when CAGTCAGACT was run?
**A.** 1.02

**Q.** Which switch fluorescence ratio does the source give for TCTGGAAACC here?
**A.** 1.12

**Q.** How did the switch fluorescence ratio turn out when CAGTTATCTG was run?
**A.** 1

**Q.** With AACCGACTCG as the sequence, how does the switch fluorescence ratio read?
**A.** 1.96

**Q.** AATCGAGTCT was tested. Which switch fluorescence ratio did it give?
**A.** 1.04

**Q.** GATGGTTATA was tested. Which switch fluorescence ratio did it give?
**A.** 1.04

**Q.** Which switch fluorescence ratio does the source give for GCTGGTTTTA here?
**A.** 0.989

**Q.** TCCCAGTACC was tested. Which switch fluorescence ratio did it give?
**A.** 1.32

**Q.** How did the switch fluorescence ratio turn out when TTCCCGCCCC was run?
**A.** 2.37

**Q.** TAAATCGGAG was tested. Which switch fluorescence ratio did it give?
**A.** 1.03

**Q.** Which switch fluorescence ratio does the source give for GAATTCCGT here?
**A.** 0.948

**Q.** GGGCCTTAGG was tested. Which switch fluorescence ratio did it give?
**A.** 1

**Q.** For ACGATGTAAG, which switch fluorescence ratio is on record?
**A.** 1.01

**Q.** For CATGGTGTCG, which switch fluorescence ratio is on record?
**A.** 1.06

**Q.** How did the switch fluorescence ratio turn out when GCTTCGTGGA was run?
**A.** 1.03

**Q.** CGTCATCAGC was tested. Which switch fluorescence ratio did it give?
**A.** 1.08

**Q.** How did the switch fluorescence ratio turn out when TTAAAATGGC was run?
**A.** 1.01

**Q.** How did the switch fluorescence ratio turn out when TTGACCGGCA was run?
**A.** 1.02

**Q.** With GGGTCCCGCG as the sequence, how does the switch fluorescence ratio read?
**A.** 1.03

**Q.** For GACTTTACAG, which switch fluorescence ratio is on record?
**A.** 1.02

**Q.** For TCACCGGTCA, which switch fluorescence ratio is on record?
**A.** 1.01

**Q.** With TAAAAATTGT as the sequence, how does the switch fluorescence ratio read?
**A.** 0.958

**Q.** CAACGACCGA was tested. Which switch fluorescence ratio did it give?
**A.** 1.27

**Q.** Which switch fluorescence ratio does the source give for ACCGAATAAC here?
**A.** 1.33

**Q.** How did the switch fluorescence ratio turn out when TTTGCGTTCT was run?
**A.** 0.921

**Q.** How did the switch fluorescence ratio turn out when TTCGTTCCGA was run?
**A.** 1.05

**Q.** How did the switch fluorescence ratio turn out when ATATAGTAG was run?
**A.** 1.02

**Q.** For TGTTATCATT, which switch fluorescence ratio is on record?
**A.** 1.01

**Q.** GCGATTTTGC was tested. Which switch fluorescence ratio did it give?
**A.** 1.07

**Q.** With AGCAAGTGG as the sequence, how does the switch fluorescence ratio read?
**A.** 1.03

**Q.** With CAACGCCGC as the sequence, how does the switch fluorescence ratio read?
**A.** 1.41

**Q.** How did the switch fluorescence ratio turn out when ACCTCGTGTA was run?
**A.** 0.993

**Q.** How did the switch fluorescence ratio turn out when GCAGCTAAAC was run?
**A.** 3.86

**Q.** Which switch fluorescence ratio does the source give for ATACGAGCGG here?
**A.** 1

**Q.** With CGACATTTTC as the sequence, how does the switch fluorescence ratio read?
**A.** 1.04
